# Data taken from PubChem BioAssay AID463173 (ICCB-Longwood Screening Facility, Harvard Medical School, 2010).
# Among all 52,000 compounds or so, about 1,700 (3.3%) were called active. No stated cut-off is given here; in the data, active means survival mostly below about 52% (no sharp cut-off); inactive means mostly above about 56%. The list shows a part of the results.
# Test system: Wild type
# Assay: growth inhibition of S. aureus wild type versus tarO mutant, primary screen, teichoic acid synthesis inhibitors, RN4220, OD600 (AID 463173)
# Details: S. aureus RN4220 wild type/DeltatarO growth, OD600, 18 h, stronger effect = lower value, screened at 18.75 µg/mL (by protocol)
row,Compound,survival
1,COc1cc(NC(=O)C2CCN(c3cnc4ccccc4n3)CC2)cc(OC)c1OC,active: -6%
2,CCCc1cc(=O)n2[nH]c(NC(=O)c3ccc(C(C)(C)C)cc3)nc2n1,inactive: 114%
3,Cc1cccc(CNS(=O)(=O)c2ccc(-c3cnc(C4CC4)o3)cc2)c1,inactive: 64%
4,CC1=C(C(=O)Nc2ccccc2C)C(c2ccncc2)n2nc(SCc3ccccc3Cl)nc2N1 (stereo not drawn),inactive: 86%
5,c1cc(CNC2CCCCC2)co1,inactive: 106%
6,CCn1c(=O)c2cc(C(=O)Nc3cc(OC)c(OC)c(OC)c3)sc2c2ccccc21,inactive: 78%
7,Cn1ccc2cc(S(=O)(=O)N3CCCC(C(=O)NCc4ccccc4)C3)ccc21 (stereo not drawn),inactive: 101%
8,Cc1cccc(-c2noc(-c3ccccc3NC(=O)C3CC(=O)N(c4ccccc4C)C3)n2)c1 (stereo not drawn),inactive: 50%
9,Cc1cccc(NS(=O)(=O)c2ccccc2)n1,inactive: 106%
10,COc1ccc(S(=O)(=O)Nc2cccc(-c3ccc(N4CCC(C)CC4)nn3)c2)cc1OC,inactive: 81%
11,Cc1cc(-c2ccc(C)c(S(=O)(=O)NC(c3cccs3)C(C)C)c2)on1 (stereo not drawn),inactive: 70%
12,CC12CC(c3ccccc3O1)C(C(=O)NCc1ccccc1)C(=O)N2 (stereo not drawn),inactive: 107%
13,O=C(COc1ccc(F)cc1)OCc1cc(=O)n2nc(C3CCCCC3)sc2n1,inactive: 68%
14,COc1ccc(NC(=O)CCSc2nc(-c3ccc(OC)cc3)cc(C(F)(F)F)n2)cc1,inactive: 77%
15,CC1(C)CC(=O)C2=C(C1)OC(N)=C(C#N)C21CCCCC1,inactive: 111%
16,Cc1ccc(NC(=O)Cn2cc(C(=O)C3CC3)c3ccccc32)c(C)c1,inactive: 93%
17,CC(C)CCNC(=O)c1ccc2c(c1)NC(=O)C(CS(=O)(=O)Cc1ccc(F)cc1)N2 (stereo not drawn),inactive: 69%
18,CCc1nnc(SCc2c(F)cccc2Cl)c2cc3sccc3n12,inactive: 88%
19,COc1ccc(C(C(=O)NCc2ccccc2)N(C(=O)Cn2nnc3ccccc32)c2cccc(OC)c2)cc1 (stereo not drawn),inactive: 88%
20,CC1=C(C(=O)N2CCN(c3cc(C)ccc3C)CC2)C2(CCC(C)CC2)OC1=O (stereo not drawn),inactive: 87%

row,Compound,survival
1,O=S(=O)(NC1CCCC1)c1cccs1,inactive: 118%
2,CCOc1ccc(NC(=O)C2(c3cccs3)CCOCC2)cc1,inactive: 82%
3,Cc1cc(C)c2sc(NC(=O)c3ccc(S(=O)(=O)N4CCCC4)cc3)nc2c1,inactive: 32%
4,CCOC(=O)c1cccc(NC(=O)CCc2nc3cccnc3n2-c2ccccc2)c1,inactive: 130%
5,COc1ccccc1C(=O)Nc1nc2nc(C)cc(=O)n2[nH]1,inactive: 86%
6,O=C(CN1C(=O)COc2ccc(S(=O)(=O)NC3CCCC3)cc21)Nc1ccc(Cl)cc1F,inactive: 71%
7,COc1ccc(OC)c(S(=O)(=O)Nc2ccc3c(c2)n(C)c(=O)n3C)c1,inactive: 113%
8,CCOC(=O)c1c(C)oc2ccc(N(C(=O)c3ccncc3)S(=O)(=O)c3ccc(CC)cc3)cc12,inactive: 79%
9,CN(C)N1C(=O)CC(NCc2ccccc2)C1=O (stereo not drawn),inactive: 99%
10,CCOC(=O)c1c(C)[nH]c(CCC(=O)Nc2cc(Cl)ccc2OC)c1C,inactive: 74%
11,Cc1nc(N2CCOCC2)c2c(C(=O)NCc3ccc(Cl)cc3)c(C)oc2n1,inactive: 94%
12,CN(C)S(=O)(=O)N(CC(=O)Nc1ccc(C(F)(F)F)cc1)c1ccccc1,inactive: 82%
13,Cc1ccc(OCCSc2nc3ccc(NC(=O)c4cccs4)cc3s2)cc1,inactive: 102%
14,COc1cc(OC)cc(C(=O)NCCc2csc3nc(-c4ccccc4F)nn23)c1,inactive: 66%
15,Cc1sc(-n2cccc2)c(C(C)NC(=O)Nc2cccc(C(F)(F)F)c2)c1C (stereo not drawn),active: 6%
16,COc1ccc(C(=O)Oc2ccc3oc(=O)sc3c2)cc1,inactive: 95%
17,Cc1ccc(S(=O)(=O)N2CC=C(c3c(C)n(CC(=O)N4CCCC4)c4ccccc34)CC2)cc1C,inactive: 81%
18,COc1cccc(CNC(=O)c2cc(-c3ccc(Cl)cc3)n[nH]2)c1,inactive: 136%
19,O=C(CCC(=O)N1CCSc2ccccc21)Nc1ccc(Cl)cc1,inactive: 75%
20,CCC(CC)c1nn2c(=O)cc(COc3ccc(NC(=O)c4cccc(C)c4)cc3)nc2s1,inactive: 129%

row,Compound,survival
1,CCOc1cccc(C(=O)N(Cc2ccc(C)o2)C2CCS(=O)(=O)C2)c1 (stereo not drawn),inactive: 90%
2,CCN1C(=O)CC(C(=O)NC)SC1=Nc1cc(Cl)c(O)c(Cl)c1 (stereo not drawn),inactive: 99%
3,COc1ccccc1CNS(=O)(=O)c1cc(Br)cc2c1N(C(=O)C1CC1)CC2,inactive: 60%
4,COc1ccc(CNc2nc(-c3ccc(Cl)cc3)nn2S(=O)(=O)c2ccc(C)cc2)cc1,inactive: 64%
5,COc1ccc(CNC(=O)c2ccc3c(c2)N(Cc2cc(C)ccc2C)C(=O)CS3)cc1,inactive: 77%
6,O=C(NCc1ccncc1)C1CCN(C(=O)c2cccc(Cl)c2)CC1,inactive: 111%
7,CCCCC(CC)C(=O)Nc1ccccc1C#N (stereo not drawn),inactive: 116%
8,COc1ccccc1OCC(=O)N(Cc1ccco1)Cc1ccccc1F,inactive: 80%
9,CC(CNC(=O)c1ccc2c(c1)nc1n2CCCCC1)c1ccccc1 (stereo not drawn),inactive: 83%
10,CCOc1ccc(CC(=O)NC2CC(=O)N(c3cccc(F)c3)C2)cc1 (stereo not drawn),inactive: 77%
11,O=c1cc(COc2ccc(Cl)cc2Cl)nc2scc(-c3ccccc3)n12,inactive: 90%
12,CCOc1ccc(-n2c(=O)c3c(C)c(C)sc3n(CC(=O)C(C)(C)C)c2=O)cc1,inactive: 125%
13,O=C1CCCN1CCCNc1ccc(Cl)nn1,inactive: 116%
14,Cc1cc(NS(=O)(=O)c2ccc(NC(=O)COc3c(C)ccc(C)c3C)cc2)nc(C)n1,inactive: 78%
15,O=C(OC(C(=O)NC1CCCC1)c1cccnc1)C1=Cc2ccccc2OC1 (stereo not drawn),inactive: 111%
16,COc1ccccc1-c1nn2c(=O)cc(CN3CCN(C(=O)Nc4ccc(C)cc4Cl)CC3)nc2s1,inactive: 83%
17,Cc1ccc(C2C(=O)N(C3CCC(C)CC3)CC(=O)N2C2CCCC2)cc1 (stereo not drawn),inactive: 70%
18,COc1ccc(CNC(=O)COCc2cc(-c3ccc4c(c3)OCO4)on2)cc1,inactive: 87%
